Laboratory results from PubChem BioAssay (NCI).
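Following 48 hours of exposure in 96-well plates, responses at five concentrations were used to interpolate endpoints linearly. GI50 marks 50% less growth. TGI marks complete inhibition of growth.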

Each compound was assayed on NCI-H322M lung (assay: NCI-60 cell line screen, 48 h).

Structure (SMILES)	TGI	GI50
COc1c(C)c2c(c(C)c1Cl)Oc1c(C=O)c(O)c(Cl)c(C)c1C(=O)O2	> 100 µM	–
Nc1c(C(=O)N/N=C/c2ccc(-c3ccc(Cl)cc3)o2)cnn1-c1ccnc2c(C(F)(F)F)cccc12	> 100 µM	> 100 µM
C#CCn1ncc2c(SCc3ccccc3)ncnc21	> 100 µM	–
O=C(O)c1ccc(NNc2cc(=O)[nH]c(=O)[nH]2)cc1	> 100 µM	–
O=C1/C(=C\c2cccn2Cc2ccccc2)c2ccccc2N1c1c(Cl)cccc1Cl	> 100 µM	8.79 µM
Cc1cccc(/C=N/NC(=S)NCCc2ccccn2)n1	> 100 µM	–
c1cc(-c2ncc(-c3ccc4c(c3)CCCO4)o2)ccn1	> 100 µM	–
Cc1[nH][nH]c(=O)c1C=Nc1ccc(-c2nc3ccccc3[nH]2)cc1	3.09 µM	0.139 µM
C#C[C@]1(O)CC[C@H]2[C@@H]3CC=C4c5sc(Nc6ccccc6)nc5CC[C@]4(C)[C@H]3CC[C@@]21C	17.8 µM	3.56 µM
COc1cc(NC(C)CCCN)c2nccc(C)c2c1OC (stereo not given)	30.4 µM	15 µM
Cc1ccc(S(=O)(=O)C2=Cc3ccc(C(F)(F)F)cc3C2(O)c2cccc(C(F)(F)F)c2)cc1 (stereo not given)	14.5 µM	–
O=C(C[n+]1ccccc1)NNC(=O)/C(=C/c1ccc2c(c1)OCO2)NC(=O)c1ccccc1	> 100 µM	–
Cc1cccc(NC(=O)/C=C/c2ccc(N(CCC#N)CCC#N)cc2C)c1	> 100 µM	–
CSC1=C(SC)SC(=C2SC3=C(SC(=C4SCCS4)S3)S2)S1	> 100 µM	–
CC(=O)O[C@@H]1C[C@]2(C(C)C)O[C@@]1(C)[C@@H]1CCC(C)=C1[C@@H]2OC(=O)/C=C/c1ccccc1	> 100 µM	> 100 µM
Cc1cccc2c1[C@]13OC(C)[C@]4(C)CC5OC(=O)[C@@]1(C)[C@@H]5[C@]34C(=O)O2 (stereo not given in full)	> 100 µM	–
CC(=O)c1sc2c(c1OC(=O)c1cccs1)c(=O)n(-c1ccccc1)c(=S)n2-c1ccccc1	45.5 µM	–
CC1(C#N)CC(C)(C)C(/C=C2/CC(C)(C)C(/C=C3/OC(=N)CC3(C)C)=N2)=N1 (stereo not given)	> 100 µM	–
CCN(CC)c1ccc2cc(-c3nnc(-c4ccccc4)o3)c(=O)oc2c1	> 100 µM	–
CSC1(CC(=O)N(C)C)C(=O)Nc2ccccc21 (stereo not given)	> 100 µM	–
COc1ccc(C2C(C#N)=C(N)OC3=C2COc2ccc(F)cc23)cc1OC (stereo not given)	72.8 µM	21.7 µM
Cc1ccc(Nc2nc(N)c(C(=O)c3ccc(C#N)cc3)s2)cc1	> 100 µM	0.907 µM
CN1CCOC1(C)CO (stereo not given)	> 100 µM	–
O=C1C(Cl)C(c2ccccc2)N1n1cnc2ccccc2c1=O (stereo not given)	> 100 µM	–
Cc1[nH]n(-c2cccc(Cl)c2)c(=O)c1/C=C1\C=Nc2ccc(Br)cc21	> 100 µM	7.03 µM

Structure (SMILES)	TGI	GI50
COc1cc2c(cc1OCc1ccccc1)CNCC2	> 100 µM	–
CC(=O)c1c(CBr)n([O-])c2ccccc2[n+]1=O	31.9 µM	17.7 µM
CCCCCc1c(C)[nH]c(/C=C2\N=C(c3ccc[nH]3)C=C2CC)c1C	0.788 µM	0.0304 µM
O=C(Nc1ccc([N+](=O)[O-])cc1)C1C(=O)C(=O)N(c2ccc([N+](=O)[O-])cc2)C1=O (stereo not given)	> 100 µM	–
COC(=O)C1=C(C)NC(C)=C(C(=O)OC)C1c1ccc(/[N+]([O-])=C/c2ccccc2)cc1	> 100 µM	–
O=C1NC(=O)C(c2c[nH]c3cc(Br)ccc23)=C1c1cn(C(c2ccccc2)(c2ccccc2)c2ccccc2)cn1	52.8 µM	–
O=C(CCC/C(CC(=O)c1ccc(Br)cc1)=N\O)Nc1ccccc1	> 100 µM	–
Cc1n(Cc2ccc3ccccc3c2)cc[n+]1Cc1ccc2ccccc2c1	10.4 µM	2.46 µM
O=c1[nH]c2cc(Cl)ccc2n1C1CCN(CCCC(c2ccc(F)cc2)c2ccc(F)cc2)CC1	3.63 µM	1.84 µM
O=c1[nH]cc(COCC(F)(F)C(F)(F)C(F)(F)C(F)F)c(=O)[nH]1	> 100 µM	–
NC(N)=N/N=C/c1cc(Cl)cc(Cl)c1O	> 100 µM	–
CO[C@H]1[C@@H](O)[C@@H](C)O[C@@H](O[C@H]2CC[C@@]3(C)[C@H](CC[C@@H]4[C@@H]3CC[C@]3(C)[C@@H](C5=CC(=O)OC5)[C@@H](OC(C)=O)C[C@]43O)C2)[C@@H]1O	0.198 µM	–
Cc1sc2nc(NCCc3c[nH]c4ccc(Cl)cc34)[nH]c(=O)c2c1C	17.3 µM	3.51 µM
O=C(NCCCNC(=O)c1ccc2c(O)c(O)ccc2c1)c1ccc2c(O)c(O)ccc2c1	> 100 µM	–
CC(=O)OCC1OC(Nc2ncc(-c3ccc(C)cc3)s2)C(OC(C)=O)C(OC(C)=O)C1OC(C)=O (stereo not given)	> 100 µM	–
N#Cc1sc2nc(/C=C3/C=CC=CC3=O)c(O)n2c1N	> 100 µM	–
CC1=CC(C2/C(=N/O)C=C(C)CC2(C)C)C(O)C(C)(C)C1 (stereo not given)	32.8 µM	–
CC1=C(Br)C(Br)=C(C)S1=O	34.5 µM	–
O=C(/C=C/c1c(O)ccc2ccccc12)c1ccc2ccccc2c1	> 100 µM	–
C/C(=C1/CCCC2(N=NCC2c2ccccc2)C1=O)c1ccccc1 (stereo not given)	> 100 µM	–
O=C1CSC(Cc2nc3ccccc3[nH]2)=N1	94.1 µM	–
N#CC(C#N)=c1[nH]c2cccc3c2-c2c(cccc2c3=C(C#N)C#N)[nH]1	> 100 µM	–
C=CCn1c(=O)n(CC=C)c(=O)n(CC=C)c1=O	> 100 µM	–
Cn1ccc(C(=O)NCCOCCNC(=O)c2ccn(C)c(=O)c2O)c(O)c1=O	> 100 µM	–
O=C(O)c1cc(O)c2c(c1)C(C1c3cc(C(=O)O)cc(O)c3C(=O)c3c(OC4OC(CO)C(O)C(O)C4O)cccc31)c1cccc(OC3OC(CO)C(O)C(O)C3O)c1C2=O (stereo not given)	> 100 µM	> 100 µM

Structure (SMILES)	TGI	GI50
O=C(CN(C1CCCCC1)C1CCCCC1)Nc1ccc(S(=O)(=O)c2ccc(NC(=O)CN(C3CCCCC3)C3CCCCC3)cc2)cc1	2.9 µM	1.53 µM
N#CSc1nc[nH]c1C(N)=O	> 100 µM	–
O=C(O)c1c(-c2nccc3ccccc23)[nH]c(-c2ccccc2)c1S(=O)(=O)O	> 100 µM	–
N#CC(C(=O)/C(=N/Nc1nc(=S)[nH]n1N)C(C#N)c1ccccc1)c1ccccc1 (stereo not given)	> 100 µM	–
C[C@]12CCC(=O)C=C1CC[C@@H]1C2CC[C@]2(C)c3nn(-c4ccc(F)cc4)nc3CC12 (stereo not given in full)	> 100 µM	–
CCN(CC)CCOc1ccc(/C(=C(\C)c2ccc(F)c(OC)c2)c2ccc(Cl)cc2)cc1	4.76 µM	2.46 µM
N#C/C(=C\c1ccc(O)c(O)c1)C(N)=O	> 100 µM	–
CCC1c2[nH]c3ccccc3c2C[C@H]2C(=O)NC(COC(C)(C)C)C(=O)N12 (stereo not given in full)	> 100 µM	–
O/N=C\c1c(O)ccc2ccccc12	> 100 µM	–
Clc1ccc(Cl)c(Nc2ccnc(SCc3ccccc3)n2)c1	> 100 µM	–
O=c1cc(-c2ccccc2)[nH]c2cc3c(cc12)OCO3	> 100 µM	–
CC(=O)Oc1ccccc1C(=O)N=C1[Se]CCN1C(=O)c1ccccc1OC(C)=O	3.07 µM	0.585 µM
O=C(CCC(=O)Nc1cccc(Cl)c1)CC(=O)c1ccc(Cl)cc1	> 100 µM	–
Nc1nc(Br)nc2c1ncn2C1CC(O)C(CO)O1 (stereo not given)	> 100 µM	> 100 µM
COc1cc2c(cc1OC)C(O)[C@H](Br)C(C)(C)O2 (stereo not given in full)	> 100 µM	–
COC(=O)c1ccc(/C=C2\N=C(C)OC2=O)cc1	> 100 µM	–
O=C(CC(c1ccccc1)N1CCCCC1)c1ccccc1 (stereo not given)	31.4 µM	–
O=C(O)c1ccccc1-c1ccccc1C(=O)Nc1ccc2c(c1)Cc1cc(F)ccc1-2	70.8 µM	–
N#CC1(C2SCCS2=O)C2=C(C(=O)c3ccccc3C2=O)N2CCCC21 (stereo not given)	9.17 µM	–
CC(C)(C)C(=O)/C=C/c1ccc(Oc2ccccc2)cc1	45.9 µM	–
O=C(CSc1nnc(-c2ccccc2NC(=O)C(F)(F)F)c(=O)[nH]1)NC(=O)Nc1ccccc1	> 100 µM	–
CCN1C(=O)N(CC)C2C1NC(=S)N2/N=C/C=C/c1cccs1 (stereo not given)	> 100 µM	0.67 µM
COc1ccc(-n2cc(-c3ccc(Cl)c(Cl)c3)nc2SCc2cccc(C#N)c2)cc1	> 100 µM	> 100 µM
NC(CCC(=O)NC(CSC(=O)N(O)c1ccc(Br)cc1)C(=O)NCC(=O)O)C(=O)O (stereo not given)	> 100 µM	–
COc1ccc2c(c1)CN1C(=N2)CSC1c1cc([N+](=O)[O-])ccc1Cl (stereo not given)	> 100 µM	–

Structure (SMILES)	TGI	GI50
COc1ccnc2c1C(=O)c1nc3ccccc3c3ccnc-2c13	1.2 µM	–
CCCCN1C=CN2c3nc4cc(C)c(C)cc4n3C(C(=O)OC)=C(C(=O)OC)C12 (stereo not given)	> 100 µM	–
CC(C)=CCS(=O)c1ccccc1NC1=CC(=O)CC(C)(C)C1 (stereo not given)	> 100 µM	–
CCN1CCN(c2ccc(Nc3ccnc4ccc5nn(C)nc5c34)cc2)CC1	26.7 µM	–
O=S(O)CCCCSSCc1ccccc1CSSCCCCS(=O)O	> 100 µM	–
CCN(CC)CCn1nc(N)c2nc3cc(Cl)ccc3nc21	> 100 µM	–
CN(C)C(=O)NCCN1CCCCCc2ccccc21	> 100 µM	–
O=C(C(=O)N1CCc2ccccc21)c1c[nH]c2ccccc12	> 10 µM	–
Nc1nc(Nc2ccccc2)c2ncn(Cc3cc4c(cc3Br)OCO4)c2n1	38.8 µM	0.141 µM
NS(=O)(=O)c1ccc(-n2c(-c3cccs3)nc3ccc(I)cc3c2=O)cc1	57.6 µM	–
CC(=O)Oc1ccc(Nc2c3ccccc3nc3ccccc23)cc1	7.1 µM	2.04 µM
NC1CCCC[C@H]1N.N[C@@H]1CCCC[C@@H]1N.O=C(P(=O)([O-])[O-])P(=O)([O-])[O-].[Pt+4].[Pt+4]	> 100 µM	> 100 µM
C/C(=N\Nc1cc(CN2CCCC2)c(-c2ccc(Cl)cc2)nn1)C(=O)O	> 100 µM	–
CCC1OC2C(CC=C(C)C)=C3OC(C)(O)C(C)(CC)C(OC(=O)c4ccccc4)C3=C3OC(=O)C=C1C32 (stereo not given)	> 100 µM	–
COc1ccc(/C=c2/sc3n(c2=O)C(c2ccc(OC)c(OC)c2)C2=C(N=3)c3cc(F)ccc3OC2)cc1 (stereo not given)	> 88.8 µM	18.7 µM
CCCCCCCCCc1cc(=O)c2c(O)cccc2o1	> 100 µM	–
CCOC(=O)c1[nH]c(COC(C)=O)c(CCCOC(C)=O)c1CCCOC(C)=O	> 100 µM	–
O=C(Nc1cccc(Cl)c1Cl)c1cccc(NC2=C(Cl)C(=O)N(Cc3ccccc3)C2=O)c1	> 100 µM	> 100 µM
CC1=C(C(=O)Nc2c(C)cccc2C)C(c2ccccc2Cl)C(C(=O)Nc2c(C)cccc2C)=C(C)N1	> 100 µM	–
COc1cccc(CCn2c(N)c(-c3ccccc3)c3ccc([N+](=O)[O-])cc3c2=O)c1	9.15 µM	–
O=C(CN1CCCCC1)N1CCc2c([nH]c3ccccc23)C1c1cccnc1 (stereo not given)	> 100 µM	–
Cc1cn(C2CC(N(O)Cc3ccccc3)C(CO)O2)c(=O)[nH]c1=O (stereo not given)	> 100 µM	–
Cc1ccc2nc(-c3ccc(N)c(I)c3)sc2c1	27.4 µM	–
COc1ccc(C(=O)C(CO)Oc2ccccc2OC)cc1OC (stereo not given)	> 100 µM	–
